Experimental data as given in the supplement of paper PMC10441789.
This is one part of the list. Antibody binding of pooled human sera (four to six donors per pool; dilution not stated) to peptides of the Trypanosoma cruzi antigen TSSA on microarrays. Quantile-normalised fluorescence in arbitrary units, mean of duplicate arrays; higher = more binding. No active / inactive call. The uninfected pools are read here as the healthy donors of the same country. The strongest signals lie near the top of the scale (about 60,000).

Columns and labels:
Experiment in all cases: antibody binding signal (normalised fluorescence) (arbitrary fluorescence units); higher = stronger serum antibody binding to peptide
[1] = tested on: pooled sera of chronic Chagas disease patients, Argentina
Experimental: (§1)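 Microarray of 15-residue peptides over residues 30-55 of Trypanosoma cruzi TSSAII, each with 1 to 10 substitutions at naturally variable positions, probed with one serum pool per country.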

[2] = tested on: pooled sera of chronic Chagas disease patients, Bolivia
Experimental: as §1

[3] = tested on: pooled sera of chronic Chagas disease patients, Brazil
Experimental: as §1

[4] = tested on: pooled sera of chronic Chagas disease patients, Colombia
Experimental: as §1

[5] = tested on: pooled sera of chronic Chagas disease patients, Mexico
Experimental: as §1

[6] = tested on: pooled sera of chronic Chagas disease patients, USA
Experimental: as §1

[7] = tested on: pooled sera of uninfected people, Argentina
Experimental: as §1

[8] = tested on: pooled sera of uninfected people, Bolivia
Experimental: as §1

[9] = tested on: pooled sera of uninfected people, Brazil
Experimental: as §1

[10] = tested on: pooled sera of uninfected people, Colombia
Experimental: as §1

[11] = tested on: pooled sera of uninfected people, Mexico
Experimental: as §1

[12] = tested on: pooled sera of uninfected people, USA
Experimental: as §1

Row | Sequence | antibody binding signal [1] | antibody binding signal [2] | antibody binding signal [3] | antibody binding signal [4] | antibody binding signal [5] | antibody binding signal [6] | antibody binding signal [7] | antibody binding signal [8] | antibody binding signal [9] | antibody binding signal [10] | antibody binding signal [11] | antibody binding signal [12]
1 | SSTPPSGKDKKTATG | 19900 | 584 | 730 | 292 | 40500 | 632 | 147 | 185 | 120 | 147 | 99.1 | 117
2 | ENKPAAGETPSPPGA | 463 | 1280 | 21100 | 321 | 349 | 4320 | 183 | 329 | 174 | 136 | 126 | 377
3 | TENKPATGGTPSPPG | 47300 | 1930 | 3120 | 254 | 1120 | 676 | 377 | 765 | 524 | 339 | 239 | 212
4 | PPSGKDKKTAAGEAP | 968 | 995 | 1060 | 1360 | 34800 | 2340 | 295 | 614 | 95.3 | 393 | 93.8 | 99.3
5 | SGTEKKAAAGGAPSP | 1130 | 253 | 1310 | 9680 | 2570 | 2330 | 251 | 566 | 242 | 189 | 143 | 152
6 | GKDNKTAAGEAPSPS | 1640 | 261 | 1040 | 3670 | 2380 | 5960 | 300 | 220 | 129 | 193 | 91.3 | 139
7 | KDNKTATGGTPSQSG | 409 | 306 | 315 | 1950 | 243 | 523 | 469 | 131 | 187 | 184 | 144 | 197
8 | GKDNKPAAGETPSQS | 1800 | 433 | 18500 | 2060 | 3240 | 3650 | 237 | 868 | 151 | 251 | 403 | 69.7
9 | TPPSGKEKKTAAGEA | 12900 | 451 | 610 | 1210 | 9270 | 1390 | 420 | 678 | 124 | 296 | 151 | 151
10 | PSGTDNKPAAGETPS | 37200 | 18900 | 46400 | 5300 | 521 | 7600 | 210 | 680 | 674 | 542 | 453 | 212
11 | SGKDKKPATGGAPSQ | 1230 | 317 | 591 | 883 | 947 | 1920 | 236 | 238 | 98.4 | 345 | 79.8 | 92.7
12 | GTENKPAAGGTPSQP | 47600 | 2630 | 10400 | 1350 | 1460 | 1680 | 446 | 1970 | 1280 | 414 | 565 | 164
13 | SGKENKPATGEAPSQ | 46500 | 50400 | 49100 | 1210 | 3190 | 38300 | 9620 | 4950 | 349 | 451 | 788 | 207
14 | DNKAATGGTPSQSGA | 572 | 1090 | 467 | 511 | 510 | 279 | 341 | 168 | 944 | 201 | 443 | 141
15 | KPAAGGAPSPPGASS | 167 | 198 | 336 | 1610 | 216 | 831 | 256 | 141 | 168 | 131 | 90.8 | 185
16 | DNKPATGGAPSPPGA | 604 | 16400 | 4920 | 334 | 281 | 2020 | 334 | 864 | 477 | 207 | 249 | 186
17 | GKDNKPAAGGTPSPS | 845 | 254 | 733 | 1760 | 1920 | 1680 | 197 | 390 | 338 | 242 | 107 | 144
18 | KEKKTATGGAPSQPG | 493 | 201 | 253 | 775 | 315 | 319 | 232 | 90 | 114 | 109 | 125 | 101
19 | DNKTATGETPSPPGA | 372 | 1130 | 2660 | 437 | 169 | 6710 | 130 | 199 | 226 | 155 | 143 | 416

Row | Sequence | antibody binding signal [1] | antibody binding signal [2] | antibody binding signal [3] | antibody binding signal [4] | antibody binding signal [5] | antibody binding signal [6] | antibody binding signal [7] | antibody binding signal [8] | antibody binding signal [9] | antibody binding signal [10] | antibody binding signal [11] | antibody binding signal [12]
20 | STPPSGTENKAAAGE | 53400 | 43700 | 46600 | 257 | 6500 | 41600 | 3130 | 415 | 266 | 626 | 385 | 405
21 | EKKPATGGTPSQSGA | 1620 | 406 | 581 | 2090 | 784 | 397 | 412 | 658 | 1130 | 232 | 222 | 688
22 | KENKAAAGEAPSPPG | 353 | 203 | 18700 | 163 | 139 | 10100 | 155 | 81.2 | 88 | 152 | 84.7 | 88.3
23 | SSTPPSGTDKKAATG | 35600 | 7760 | 35900 | 8880 | 44600 | 5700 | 591 | 127 | 157 | 396 | 1490 | 251
24 | TDKKTATGEAPSPSG | 8930 | 22600 | 10700 | 183 | 567 | 19500 | 183 | 103 | 225 | 109 | 162 | 171
25 | EKKAATGGTPSQSGA | 742 | 883 | 413 | 1170 | 829 | 1150 | 307 | 761 | 795 | 1160 | 251 | 715
26 | TENKTAAGEAPSPPG | 25100 | 518 | 6130 | 192 | 225 | 9020 | 180 | 124 | 215 | 180 | 129 | 128
27 | GTEKKAAAGETPSPP | 564 | 236 | 1090 | 591 | 784 | 2700 | 145 | 692 | 159 | 176 | 168 | 386
28 | GKEKKAATGGAPSQP | 2900 | 393 | 1300 | 2080 | 1980 | 1780 | 210 | 107 | 93 | 170 | 80.2 | 81.2
29 | GKDKKAAAGETPSQS | 585 | 210 | 416 | 1590 | 1250 | 1450 | 119 | 87.3 | 85.2 | 130 | 77.9 | 97.4
30 | TDKKPAAGGAPSQSG | 409 | 158 | 461 | 5000 | 318 | 382 | 207 | 736 | 478 | 131 | 115 | 178
31 | TEKKPATGGAPSPSG | 3510 | 1250 | 1750 | 3450 | 1800 | 3090 | 501 | 1140 | 217 | 153 | 303 | 695
32 | KAAAGGAPSQPGASS | 244 | 417 | 3430 | 3470 | 373 | 191 | 172 | 106 | 108 | 95.2 | 89.8 | 101
33 | EKKTAAGETPSQPGA | 616 | 687 | 25500 | 524 | 471 | 4110 | 164 | 1490 | 139 | 1180 | 186 | 1060
34 | GTDNKAAAGGTPSQS | 259 | 194 | 28500 | 2150 | 313 | 1040 | 174 | 730 | 3060 | 268 | 247 | 104
35 | GTDNKTATGEAPSQS | 15000 | 30800 | 34300 | 217 | 373 | 21800 | 171 | 531 | 1110 | 112 | 116 | 104
36 | KEKKPATGGTPSQSG | 380 | 326 | 185 | 302 | 208 | 274 | 185 | 99.8 | 237 | 97.7 | 88.1 | 330
37 | KAAAGETPSQPGASS | 2010 | 3370 | 34200 | 199 | 170 | 1400 | 156 | 1270 | 135 | 218 | 248 | 177
